The list shows a part of the results. Single values of this set are uncertain. Values with irradiation are relative to irradiated vehicle.
Columns and labels:
A549-Dual [1] = experiment: NF-kB reporter (SEAP) activity, viability-corrected, relative to vehicle (fold change vs vehicle); higher = more activation of STING-IRF / NF-kB immune response reporter
A549-Dual [2] = experiment: ISRE reporter (Lucia luciferase) activity, viability-corrected, relative to vehicle (fold change vs vehicle); higher = more activation of STING-IRF / NF-kB immune response reporter
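Wherever NF-kB reporter (SEAP) activity, viability-corrected, relative to vehicle is given: viability correction based on the alamar blue assay, with concentrations leaving 10% survival or less dropped.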

## CCC1(O)C(=O)OCc2c1cc1n(c2=O)Cc2cc3cc(O)ccc3nc2-1 [(S)-10-Hydroxycamptothecin]
A549-Dual [1]; 0.1 µM, irradiation: 8 Gy/4 fr
  NF-kB reporter: 1.26
A549-Dual [1]; 0.1 µM, irradiation: none
  NF-kB reporter: 3.12
A549-Dual [1]; 0.3 µM, irradiation: 8 Gy/4 fr
  NF-kB reporter: 1.43
A549-Dual [1]; 0.3 µM, irradiation: none
  NF-kB reporter: 6.73
A549-Dual [1]; 1 µM, irradiation: 8 Gy/4 fr
  NF-kB reporter: 3.62
A549-Dual [1]; 1 µM, irradiation: none
  NF-kB reporter: 6.58
A549-Dual [2]; 0.1 µM, irradiation: 8 Gy/4 fr
  ISRE reporter: 1.4
A549-Dual [2]; 0.1 µM, irradiation: none
  ISRE reporter: 10.5
A549-Dual [2]; 0.3 µM, irradiation: 8 Gy/4 fr
  ISRE reporter: 2.07
A549-Dual [2]; 0.3 µM, irradiation: none
  ISRE reporter: 19.2
A549-Dual [2]; 1 µM, irradiation: 8 Gy/4 fr
  ISRE reporter: 2.4
A549-Dual [2]; 1 µM, irradiation: none
  ISRE reporter: 16.6

## CC(=O)OC[C@H]1O[C@@H]([S-])[C@H](OC(C)=O)[C@@H](OC(C)=O)[C@@H]1OC(C)=O.CCP(CC)CC.[Au+] [Auranofin]
A549-Dual [1]; 0.1 µM, irradiation: 8 Gy/4 fr
  NF-kB reporter: 1.02
A549-Dual [1]; 0.1 µM, irradiation: none
  NF-kB reporter: 0.998
A549-Dual [1]; 0.3 µM, irradiation: 8 Gy/4 fr
  NF-kB reporter: 1.07
A549-Dual [1]; 0.3 µM, irradiation: none
  NF-kB reporter: 0.947
A549-Dual [1]; 1 µM, irradiation: 8 Gy/4 fr
  NF-kB reporter: 1.09
A549-Dual [1]; 1 µM, irradiation: none
  NF-kB reporter: 1.02
A549-Dual [1]; 3 µM, irradiation: 8 Gy/4 fr
  NF-kB reporter: 1.16
A549-Dual [1]; 3 µM, irradiation: none
  NF-kB reporter: 0.974
A549-Dual [2]; 0.1 µM, irradiation: 8 Gy/4 fr
  ISRE reporter: 0.953
A549-Dual [2]; 0.1 µM, irradiation: none
  ISRE reporter: 0.756
A549-Dual [2]; 0.3 µM, irradiation: 8 Gy/4 fr
  ISRE reporter: 0.863
A549-Dual [2]; 0.3 µM, irradiation: none
  ISRE reporter: 0.759
A549-Dual [2]; 1 µM, irradiation: 8 Gy/4 fr
  ISRE reporter: 0.621
A549-Dual [2]; 1 µM, irradiation: none
  ISRE reporter: 0.794
A549-Dual [2]; 3 µM, irradiation: 8 Gy/4 fr
  ISRE reporter: 0.797
A549-Dual [2]; 3 µM, irradiation: none
  ISRE reporter: 0.865

## CCCCOC(=O)c1ccc(N)cc1 [Butamben]
A549-Dual [1]; 10 µM, irradiation: 8 Gy/4 fr
  NF-kB reporter: 0.607
A549-Dual [1]; 10 µM, irradiation: none
  NF-kB reporter: 0.884
A549-Dual [2]; 10 µM, irradiation: 8 Gy/4 fr
  ISRE reporter: 0.553
A549-Dual [2]; 10 µM, irradiation: none
  ISRE reporter: 0.927

## CCC1OC(=O)CC(O)C(C)C(OC2OC(C)C(O)C(N(C)C)C2O)C(CCN2CC(C)CC(C)C2)CC(C)C(=O)/C=C/C(C)=C/C1COC1OC(C)C(O)C(OC)C1OC (stereo not drawn) [Tilmicosin]
A549-Dual [1]; 10 µM, irradiation: 8 Gy/4 fr
  NF-kB reporter: 0.855
A549-Dual [1]; 10 µM, irradiation: none
  NF-kB reporter: 0.976
A549-Dual [2]; 10 µM, irradiation: 8 Gy/4 fr
  ISRE reporter: 1.04
A549-Dual [2]; 10 µM, irradiation: none
  ISRE reporter: 0.952

## CN(C)CCc1c[nH]c2ccc(CS(=O)(=O)N3CCCC3)cc12.O=C(O)CC(O)C(=O)O [Almotriptan Malate]
A549-Dual [1]; 10 µM, irradiation: 8 Gy/4 fr
  NF-kB reporter: 0.747
A549-Dual [1]; 10 µM, irradiation: none
  NF-kB reporter: 0.926
A549-Dual [2]; 10 µM, irradiation: 8 Gy/4 fr
  ISRE reporter: 0.897
A549-Dual [2]; 10 µM, irradiation: none
  ISRE reporter: 0.826

## COc1ccc(-n2nc(C(N)=O)c3c2C(=O)N(c2ccc(N4CCCCC4=O)cc2)CC3)cc1 [Apixaban]
A549-Dual [1]; 10 µM, irradiation: 8 Gy/4 fr
  NF-kB reporter: 0.722
A549-Dual [1]; 10 µM, irradiation: none
  NF-kB reporter: 0.876
A549-Dual [2]; 10 µM, irradiation: 8 Gy/4 fr
  ISRE reporter: 0.744
A549-Dual [2]; 10 µM, irradiation: none
  ISRE reporter: 0.793

## CCC12CCCN3CCc4c(n(c5ccccc45)C(O)(C(=O)OC)C1)C32 (stereo not drawn) [Vincamine]
A549-Dual [1]; 10 µM, irradiation: 8 Gy/4 fr
  NF-kB reporter: 0.822
A549-Dual [1]; 10 µM, irradiation: none
  NF-kB reporter: 0.847
A549-Dual [2]; 10 µM, irradiation: 8 Gy/4 fr
  ISRE reporter: 0.795
A549-Dual [2]; 10 µM, irradiation: none
  ISRE reporter: 0.701

## OC(Cn1cncn1)(Cn1cncn1)c1ccc(F)cc1F [Fluconazole]
A549-Dual [1]; 10 µM, irradiation: 8 Gy/4 fr
  NF-kB reporter: 0.744
A549-Dual [1]; 10 µM, irradiation: none
  NF-kB reporter: 0.902
A549-Dual [2]; 10 µM, irradiation: 8 Gy/4 fr
  ISRE reporter: 0.713
A549-Dual [2]; 10 µM, irradiation: none
  ISRE reporter: 0.703

## CC1(C)SC2C(NC(=O)Cc3ccccc3)C(=O)N2C1C(=O)O.CCN(CC)CCOC(=O)c1ccc(N)cc1.O (stereo not drawn) [Penicillin G Procaine]
A549-Dual [1]; 10 µM, irradiation: 8 Gy/4 fr
  NF-kB reporter: 0.612
A549-Dual [1]; 10 µM, irradiation: none
  NF-kB reporter: 0.944
A549-Dual [2]; 10 µM, irradiation: 8 Gy/4 fr
  ISRE reporter: 0.583
A549-Dual [2]; 10 µM, irradiation: none
  ISRE reporter: 0.617

## Nc1ccc(S(=O)(=O)Nc2ccnn2-c2ccccc2)cc1 [Sulfaphenazole]
A549-Dual [1]; 10 µM, irradiation: 8 Gy/4 fr
  NF-kB reporter: 0.646
A549-Dual [1]; 10 µM, irradiation: none
  NF-kB reporter: 0.926
A549-Dual [2]; 10 µM, irradiation: 8 Gy/4 fr
  ISRE reporter: 0.723
A549-Dual [2]; 10 µM, irradiation: none
  ISRE reporter: 0.852

## CC(O)C(=O)Nc1c(I)c(C(=O)NC(CO)CO)c(I)c(C(=O)NC(CO)CO)c1I (stereo not drawn) [Iopamidol]
A549-Dual [1]; 10 µM, irradiation: 8 Gy/4 fr
  NF-kB reporter: 0.825
A549-Dual [1]; 10 µM, irradiation: none
  NF-kB reporter: 0.729
A549-Dual [2]; 10 µM, irradiation: 8 Gy/4 fr
  ISRE reporter: 0.85
A549-Dual [2]; 10 µM, irradiation: none
  ISRE reporter: 0.699

## Cl.O.O=C(O)c1cn(C2CC2)c2cc(N3CCNCC3)c(F)cc2c1=O [Ciprofloxacin hydrochloride hydrate]
A549-Dual [1]; 10 µM, irradiation: 8 Gy/4 fr
  NF-kB reporter: 0.918
A549-Dual [1]; 10 µM, irradiation: none
  NF-kB reporter: 0.871
A549-Dual [2]; 10 µM, irradiation: 8 Gy/4 fr
  ISRE reporter: 0.811
A549-Dual [2]; 10 µM, irradiation: none
  ISRE reporter: 0.667
